Measured values published in the supplement of paper PMC4466236.
In all, about 33,000 sequences were measured (“E-score (dimensionless, -0.5 to 0.5)”: median about -0.058, highest 2% from about 0.35 on). This is one part of the list.

System: MvaT
Experiment: PBM 8-mer E-score (mean of HK and ME arrays) (E-score (dimensionless, -0.5 to 0.5)); higher = stronger relative binding preference; most listed sequences are background and not binding sites
Method in brief: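 Full-length P. aeruginosa MvaT, with glutathione S-transferase fused to its N-terminus (cloned into pTH6838 by isothermal assembly), was tested by protein binding microarray using a previously described protocol. Two universal double-stranded 60-mer arrays (ME and HK) were used, each with a constant 25-mer primer region and a variable 35-mer region covering all 8-mers. The rank-based 8-mer E-score (-0.5 to 0.5) is the mean of the two arrays, parsed with a custom Python script.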

Sequence	PBM 8-mer E-score
GGACAGTA	-0.0349
CACCTGAA	-0.101
CTGCTTTA	0.0194
ACAGTAAT	0.321
TAAAATAA	0.438
CGGACTTC	-0.019
GCTCGACC	-0.273
TGCTAACA	0.0452
CGTTTCAA	0.0183
ATTGGATA	0.187
GTAGACCA	-0.112
AATATCGT	0.234
ACTGGGTA	0.0496
AAATTTCA	0.241
ACCTGGCA	-0.0572
ATCTTATG	0.0518
CGGGAGGA	-0.234
AGGGCAGG	-0.265
AGAATACA	0.0781
GATGGCGA	0.0338
CCGATTAC	-0.0227
AATTGAGA	0.0559
GAGGCCAA	-0.149
CAGGACAG	-0.206
ATCAAATC	-0.0337

Sequence	PBM 8-mer E-score
AAGAAACA	0.16
TACCACTA	0.0507
GGGCACCC	-0.277
ACCAGTAT	0.036
CCACCCCA	-0.226
CGGACGCA	-0.201
ATATTACG	0.299
CGCCTGAG	-0.229
GAAATAAA	0.405
CGACCGCG	-0.249
ACACACCT	-0.0695
AATGGTAA	0.226
CAAACTGA	0.0425
CATAAGTA	0.315
ACTATGAT	0.204
ACATTAGC	0.101
CATTAGAA	-0.0258
ACTTACTC	0.0724
ATGGGACA	-0.127
GCACGGCC	-0.199
ACCACGAG	-0.16
AGCTTGTC	-0.101
AATGATCG	-0.0474
ATTTATAG	0.342
CGCCTCGC	-0.193

Sequence	PBM 8-mer E-score
CGCCCGTA	-0.132
AATTAAGA	0.277
GATCTTCA	-0.141
GCCTTTTA	0.14
ACTAAAAA	0.193
CAATGACA	-0.0266
CTACAGCA	-0.125
GAGACCAA	-0.0758
ACTAGTAC	0.114
CTCGAAAG	-0.148
ACTCCCAA	0.0716
CGTTCTAG	-0.00357
CTAGACAG	-0.157
CCCTAATA	0.00517
GCTGTTGA	-0.137
GCATTCAA	0.15
GAGACATA	0.242
CGATCACA	-0.038
ACGATGAG	-0.215
GTGTGCAA	-0.034
AGAACGTC	-0.0779
GATTCTCA	-0.0981
AACGAGAT	0.0252
AGGCCCTC	-0.326
CCAAGTAC	0.055

Sequence	PBM 8-mer E-score
AGGCATCG	-0.134
ACCTGCGC	-0.117
AGGGACGC	-0.271
GAACGTAA	0.0182
CCCTAACA	0.00516
AAGCTGTC	-0.0165
GAGTCTGC	-0.354
GTACTGGA	0.0295
ACGTTGGA	-0.144
AGTCCCGC	-0.186
CAGCCTTC	-0.321
AACAGATT	0.0949
CGGGTTTC	-0.253
AAGCCGTG	-0.156
AGGCCTAC	-0.133
ATATCCTG	0.161
CGGTTAAC	0.012
CGGTATAA	0.296
TCCCAGCA	0.0141
CATTGTGG	-0.0595
ATTCATTA	0.219
CATCGTTA	0.113
GACCTCAC	-0.303
CTGTTGCA	-0.121
AGACTGGC	-0.0976

Sequence	PBM 8-mer E-score
GCTATCTA	-0.193
ACCTCTTC	-0.242
AAAACGCC	-0.197
GAGGGCCA	-0.326
CGTTAAGC	-0.0162
GGCTTACC	-0.264
AAAACACT	0.0994
CTTCACTC	-0.239
CACTGAGC	-0.183
GTGAGAAC	0.0401
ATTAATTC	0.415
AGGGATCA	-0.154
AGCAACCC	-0.0849
CCCTCAAA	-0.123
GTAAAGAC	-0.0319
AACGGGGT	-0.142
AAAGGACA	0.0226
CGGAAACC	-0.267
ACAAATGC	0.0069
AGAAAACA	0.182
TAGCCGCA	-0.0208
GTCATGGA	-0.101
AGACGTCG	-0.11
GACGGTAA	-0.0106
CACCTATA	0.122

Sequence	PBM 8-mer E-score
ATCGGCCG	-0.185
CTCCAATA	0.202
CAATTAGG	0.106
ACAAAGGA	-0.104
ATGATTAA	0.307
TCACACGA	-0.168
ACAGACTG	-0.177
ACATTCGT	-0.0828
AGTATCGG	0.0692
GAAGCGAA	-0.0527
TACACTGA	0.137
GCCCTGAC	-0.243
GAGTACTA	0.074
GAAATTTC	0.317
AGGACCGC	-0.29
GGGGGTAC	-0.292
AGCAAAGA	-0.0173
AGCTATAG	0.0139
CGACTACA	0.0423
AATTTCTC	0.125
TCCACCAA	0.0584
ATGGACTG	-0.179
CTGAAAGC	-0.148
CAGCTCGC	-0.107
AGTTGAAT	0.103

Sequence	PBM 8-mer E-score
AAAGAGCT	-0.115
GCAAGCGA	-0.21
CGACAACC	-0.075
AAGGGATA	-0.0207
AACCAAGA	0.0134
GCCCAAAA	0.0513
ATTTTTTG	0.116
GGGTAGGA	-0.2
CTAAAGGA	-0.0979
CCGAACGG	-0.229
CTCCACAA	-0.045
ATAAGTCG	0.183
AACCCTCC	-0.222
AGTGGCAA	-0.0346
CACGCTCA	-0.177
AACGTTGG	-0.094
AGGAGACT	-0.214
GCGGATAC	-0.123
ATTGGTCC	-0.12
CACCAAGA	-0.0628
ATGGCGGA	-0.168
CGTGCGCC	-0.27
